For 67 sequences, switch fluorescence ratio results are on record in the supplement of paper PMC10126150.

Values marked as one replicate rest on one cluster of the flow cell; about a third of the high ones do not repeat.
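Note: ATP exposure 15 min at 22 °C before imaging.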

In the data set the test system is ATP. As to the kind of experiment: switch fluorescence ratio, 500 uM ATP over buffer (Cy3 cluster intensity, sum of 5 cycles each) (fold (ratio)); higher = stronger signal-on switching upon ATP binding; sequences stand for … in TCGTCGGCAGCGTCAGATGTGTATAAGAGACAGTTTTTTTTTTTTTTTTTTTTTTTTT…TC. The conditions noted are these: aptamer strand: ATP DNA aptamer (quencher-CACCTGGGGGAGTATTGCGGAGGAAGG + anchor), 100 nM annealed; ATP concentration: 500 uM; one replicate. An outline of the steps:
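Clusters carrying Cy3-labelled switching strands on a modified Illumina MiSeq flow-cell were annealed to 100 nM quencher-labelled ATP aptamer and imaged in selection buffer. They were imaged again after 15 min with 500 uM ATP at 22 °C, over five buffer/ATP cycles with NaOH stripping and re-annealing in between. For each cluster, the fluorescence ratio is the summed Cy3 intensity of the target cycles divided by that of the buffer cycles, averaged per switch-domain sequence. Clusters outside 100-1000 RFU were left out.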
Take CTGGGGATGA: the switch fluorescence ratio is 0.982.

On to AAAGCCTGT, for which the switch fluorescence ratio is 0.985.

Turning to GCTTTCCGTC, the switch fluorescence ratio came to 1.06. Consider TTAGCGCGG, for which the switch fluorescence ratio worked out at 1.03. Regarding AATCTGTGGG, the switch fluorescence ratio came to 1.01. In the case of GTGATTTGTA, the switch fluorescence ratio amounted to 0.975. As for AAGAAAACAT, the switch fluorescence ratio came to 1.01. GAATGACATG: the switch fluorescence ratio was 0.986.

Turning to AGCTCGGGCC, the switch fluorescence ratio stood at 0.99. In the case of TGCAGAAGCA, the switch fluorescence ratio stood at 1.01.

For the sequence ACTTGTTCAA, the switch fluorescence ratio worked out at 0.992. TGGACTCGTG: the switch fluorescence ratio is 0.97. With CAAACTATAT, the switch fluorescence ratio is 1.02. For the sequence AAGAATATGA, the switch fluorescence ratio was found to be 0.944. As for GGAAGATCTT, the figure is 1.01. Next, CGTTTGTGCC: 1.03.

Turning to CGGCAACGAA, the switch fluorescence ratio is 1. Next, ATGGCAG: 0.914; CACGGGCAGT: 1.07; TTTGTTGGAC: 1.06. On to GCAGGGAGCA, for which the switch fluorescence ratio came out at 1.03. As to TATCGGTCT, the switch fluorescence ratio is 0.987.

As for GTTATCGCCA, the switch fluorescence ratio stood at 1.01. Take CCCGCGATGC: the switch fluorescence ratio turned out to be 1.23. As to CCGTATTTTG, the switch fluorescence ratio worked out at 1.05.

On to ATGATGGGAG, for which the switch fluorescence ratio came out at 0.959. As for AGCTAGTAAT, the figure is 1.03; as for TCATTTGAAC, 0.995. As for ACAGACCCAG, the figure is 0.98; as for CTCCTTATGT, 0.996.

In the case of TCCATGGGCG, the switch fluorescence ratio was 0.996. For AAGATGCCTC, the switch fluorescence ratio came to 0.963. With AAAAAGAATA, the switch fluorescence ratio came to 0.953. For the sequence CTCATTAATT, the switch fluorescence ratio was determined as 0.948. In the case of CTAGGTGGG, the switch fluorescence ratio is 1.02.

As for CTGGACTAG, the switch fluorescence ratio came out at 0.944.

As to TTGCAAGTTA, the switch fluorescence ratio came out at 1.05. As for AAGTAGCCC, the switch fluorescence ratio stood at 0.997. On to CAAATGAAC, for which the switch fluorescence ratio was found to be 1.58. As for GAGGGCTGGT, the switch fluorescence ratio came to 0.995. TACATCAATA: the switch fluorescence ratio was found to be 1.04. TGTTAAAGAG: the switch fluorescence ratio was 1.01.

On to GCAGGGCAGG, for which the switch fluorescence ratio was found to be 1.14. In the case of GGGCTAAAAT, the switch fluorescence ratio came out at 1.01. As to TCACTATTGG, the switch fluorescence ratio is 1.03. Regarding TAGATAGGA, the switch fluorescence ratio was 0.993. Next, CTTAGGTTAA: 0.96; CGTAGGCCTT: 1.02; AGTTGTGTCC: 1.01. In the case of TTTAATAATA, the switch fluorescence ratio is 1.01. Take GTGTGTCAAG: the switch fluorescence ratio worked out at 1.01. In the case of AACTATGAGA, the switch fluorescence ratio came out at 1.04. For AGGTATTAAT, the switch fluorescence ratio was found to be 1.05. As for ACGCGAACGA, the switch fluorescence ratio came to 1.07. Take CGCAAGTGCG: the switch fluorescence ratio is 1.13. For the sequence ATCCCGGCTC, the switch fluorescence ratio amounted to 1.02. In the case of ATTAGGTATT, the switch fluorescence ratio stood at 1.01. In the case of ACCGTGAGTT, the switch fluorescence ratio stood at 1.01.

Take TGGCTTTCAG: the switch fluorescence ratio amounted to 0.987. TTTCGAAGG: the switch fluorescence ratio came out at 1.02.

Turning to AGATGCGTCT, the switch fluorescence ratio turned out to be 0.89.

Consider CGGTCCAGCT, for which the switch fluorescence ratio is 0.967.

For TGGTAGTGTG, the switch fluorescence ratio is 0.983. Take GGGATCTTTG: the switch fluorescence ratio is 0.998. On to AGCCAGCCCT, for which the switch fluorescence ratio came out at 1.02. As for CACGTATGAC, the figure is 1.07; as for TTGACTGAGC, 0.983.
